In PubChem BioAssay AID504845 (National Center for Advancing Translational Sciences (NCATS), 2011):
Out of some 390,000 compounds screened, about 150 (0.038%) were called active. Inconclusive means that the source gave no clear call. Such entries were picked first, then a sample of the others. Calls follow the shape of the dose curve; as a rule, active = well fitted inhibition curve with a large enough effect; inconclusive = small, poorly fitted or top-dose-only effect; inactive = no such curve, though single readings can be large or run the other way. Potencies of inconclusive entries are doubtful fits and often do not repeat.

The compounds below were run against Regulator of G-protein signaling 4 (Homo sapiens) (UniProt P49798) (assay: Inhibitors of Regulator of G Protein Signaling (RGS) 4: qHTS). Conditions: Transcreener GDP fluorescence polarization, RGS4-accelerated GTP hydrolysis; series mostly up to 114 µM.
How it was run: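 MLSMR compounds (23 nl, pin-transferred) preincubated 10 min at room temperature with a 500nM (2x) first reagent, then RGS4 at 900nM (2x) plus Transcreener GDP mix added; fluorescence polarization (620/688 nm) read before and after 90 min at 30 °C.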
Also: nearly all actives have a fitted effect of over 75% in size.
Potency is read from the fitted curve at half-maximal effect; tags tell the direction and shape of the fitted curve.

Chain of UniProt P49798 (P49798 whole entry, looked up): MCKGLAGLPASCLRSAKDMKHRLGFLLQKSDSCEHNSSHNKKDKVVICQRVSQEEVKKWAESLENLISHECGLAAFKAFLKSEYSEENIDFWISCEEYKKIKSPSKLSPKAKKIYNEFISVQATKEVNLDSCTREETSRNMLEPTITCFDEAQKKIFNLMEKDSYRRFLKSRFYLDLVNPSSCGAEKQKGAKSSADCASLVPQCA

| Structure (SMILES) | Potency |
| --- | --- |
| CCOC(=O)c1cc(CC)sc1NC(=O)c1cc(OCC)c(OCC)c(OCC)c1 | inconclusive: 70.8 µM [inhibitor, single point] |
| Cc1ccc(OCC(=O)Nc2c(C(=O)c3ccccc3)oc3ccccc23)cc1C | inconclusive: 112 µM [inhibitor, partial curve, poor fit] |
| Cc1cc(C)c2c(N=NN(C)C)[nH]nc2n1 | inconclusive: 70.8 µM [inhibitor, single point] |
| COc1ccc2sc(C)[n+](C)c2c1 | inconclusive: 44.7 µM [inhibitor, partial curve, poor fit] |
| Cc1cc(C)n(-c2ccc(C(=O)OCC(=O)NC(c3ccccc3)c3ccccc3)cc2)n1 | inconclusive: 35.5 µM [inhibitor, partial curve, poor fit] |
| CN(CC(=O)NCc1ccc(Cl)cc1)S(=O)(=O)c1cccc2cccnc12 | inconclusive: 50.1 µM [inhibitor, partial curve, poor fit] |
| COc1ccc(N=N/C(=C\O)C(=O)c2ccco2)cc1 | inconclusive: 70.8 µM [inhibitor, partial curve, poor fit] |
| Cc1nnc(NC(=O)c2nc(S(=O)(=O)Cc3ccccc3C)ncc2Cl)s1 | inconclusive: 31.6 µM [inhibitor, full curve, poor fit] |
| CCOC(=O)c1c(NC(=O)C2C3C=CC(C3)C2C(=O)O)sc2c1CCC(C)C2 (centres undefined) | inconclusive: 100 µM [inhibitor, single point] |
| CCCCCOCC1CC(C/C(C)=N/Nc2nc(-c3ccccc3)cs2)C(=O)O1 (centres undefined) | inconclusive: 35.5 µM [inhibitor, full curve, poor fit] |
| Cc1cccc(NC(=O)c2cc(S(=O)(=O)N(C)c3ccc(F)cc3)ccc2Cl)n1 | inactive |
| CCCN1C2CCCC1CC(NC(=S)Nc1ccc(OC)cc1)C2 (centres undefined) | inactive |
| c1ccc(COc2nsnc2N2CCOCC2)cc1 | inconclusive: 20 µM [inhibitor, full curve, poor fit] |
| CCC(CC)=NNc1ccc(S(N)(=O)=O)cc1[N+](=O)[O-] | inactive |
| O=C(/C=C/c1ccc(Br)cc1)c1ccc(NC(=O)c2ccco2)cc1 | inconclusive: 79.4 µM [inhibitor, partial curve, poor fit] |
| COc1ccccc1N1CCN(S(=O)(=O)CCNC(=O)C2CCCCC2)CC1 | inconclusive: 89.1 µM [inhibitor, single point] |
| C=NCc1cc2c(OC[C@@H](O)CNC(C)(C)C)cccc2[nH]1 | inconclusive: 37.7 µM [inhibitor, partial curve, poor fit] |
| Clc1ccc(OCc2nn3c(-c4ccco4)nnc3s2)c(Cl)c1 | inconclusive: 31.6 µM [inhibitor, full curve, poor fit] |
| c1ccc(N/N=C(\Cc2nc3ccccc3[nH]2)c2ccccc2)cc1 | inconclusive: 79.4 µM [inhibitor, single point] |
| CC1CCCC(=C\c2ccccc2)/C1=N/O (centres undefined) | inconclusive: 44.7 µM [inhibitor, partial curve, poor fit] |

| Structure (SMILES) | Potency |
| --- | --- |
| Nn1c(C2COc3ccccc3O2)n[nH]c1=S (centres undefined) | inconclusive: 79.4 µM [inhibitor, partial curve, poor fit] |
| C=CCN=c1scc(-c2ccco2)n1/N=C/c1ccc(O)c(O)c1O | inconclusive: 112 µM [inhibitor, partial curve, poor fit] |
| COc1cccc(C(=S)N2CCCC2)c1OC | inconclusive: 10 µM [inhibitor, full curve, poor fit] |
| COc1cccc(C(=O)Nc2cccc(OCC(=O)c3ccccc3)c2)c1 | inconclusive: 100 µM [inhibitor, single point] |
| COc1ccccc1-n1cc(-c2ccc(C)cc2)nc1S(=O)(=O)CC(=O)Nc1ccccc1C(F)(F)F | inconclusive: 17.8 µM [inhibitor, full curve, poor fit] |
| Cc1cccc2cc(CN(Cc3nnnn3Cc3ccco3)C3CCCC3)c3nnnn3c12 | inconclusive: 89.1 µM [inhibitor, single point] |
| COC(CNC(=O)c1ccc(Cn2c(=S)[nH]c3cc4c(cc3c2=O)OCO4)cc1)OC | inconclusive: 89.1 µM [inhibitor, single point] |
| Cc1cccc(Cn2c(SCc3ccc(C(=O)N4CCCCCC4)cc3)nc3ccncc32)c1 | inconclusive: 70.8 µM [inhibitor, single point] |
| COc1ccc(OCC(=O)Nc2nc3c(s2)CCCC3)cc1 | inactive |
| Clc1ccc(CO/N=C2\CCCc3nonc32)cc1 | inconclusive: 56.2 µM [inhibitor, partial curve, poor fit] |
| CC(=C/c1ccccc1)/C=N/n1c(-c2ccco2)n[nH]c1=S | inconclusive: 100 µM [inhibitor, partial curve, poor fit] |
| CN(CC(=O)Nc1cccc2ccccc12)C(=O)c1ccc(F)cc1F | inconclusive: 100 µM [inhibitor, partial curve, poor fit] |
| C[N+](C)(C)CCC(=O)N1C/C(=C/c2ccccc2)C(=O)/C(=C\c2ccccc2)C1 | inconclusive: 17.8 µM [inhibitor, full curve, poor fit] |
| Cc1[nH]c(=S)c(C#N)c(-c2ccccc2)c1C(=O)Nc1ccccc1 | inconclusive: 79.4 µM [inhibitor, partial curve, poor fit] |
| COc1ccc(NC(=O)Cc2c(C(=O)O)n(C)c3ccccc23)cc1OC | inconclusive: 79.4 µM [inhibitor, single point] |
| Cc1cc(N2CCCC2)c(F)cc1/C=C\[N+](=O)[O-] | inconclusive: 100 µM [inhibitor, partial curve, poor fit] |
| C=CS(=O)(=O)c1sc(Cl)c(N2CCOCC2)c1[N+](=O)[O-] | inconclusive: 11.2 µM [inhibitor, full curve, poor fit] |
| CCOc1ccc(OCC)c(-c2c(=O)n(OCc3ccccc3C(=O)OC)c3ccccc3[n+]2[O-])c1 | inactive |
| COc1ccc(NC(=O)CSc2ncc(-c3ccc(Cl)cc3)[nH]2)cc1OC | inactive |
